In patent publication US6710060B2, “4-hydroxypiperidine derivatives having antiarrhythmic activity” (Mochida Pharmaceutical Co., Ltd., priority 1999, dated 2004):
Counter-ions that a name gives are not always drawn.

System: Arrythmia Model Induced by Two Step Ligation of Canine Coronary Artery
Assay: Suppressive action on arrythmia induced by two step ligation of canine coronary artery
Conditions: before start of administration 100
Description: [Suppressive Action on Arrythmia Induced by Two Step Ligation of Canine Coronary Artery]
After anesthetizing with 30 mg/kg (i.v.) of thiopental sodium, a beagle dog was ventilated by artificial respiration under a condition of 20 mL/kg and 22 strokes/min. The fifth left intercostal space was opened under sterile condition to incise membrana pericardiac cavity, and the heart was hanged in the thoracic cavity. The left anteirior descending limb of the coronary artery was peeled at 1 cm downstream of the joint to the circumflexus branch, and the artery was wound with two strings of sutures. Blood vessel of the artery was at first ligated together with a 19G needle with a round tip, and the constriction is prepared by pulling out the needle (one step ligation). Thirty minutes after the first ligation, the artery was completely ligated with the other suture (two step ligation). A dipolar electrode was stitched on the left atrial auricle for recording atrial potential. […] The aortic blood pressure was measured using a pressure transducer. […] The heart rate was measured using the R—R interval on the electrocardiogram or from the blood pressure. Each signals were recorded with a chart recorder with verification on a monitor, while simultaneously recording on a magnetic medium using a personal computer. […]

CCCCOc1ccc(N(C)CCC2(O)CCN(Cc3ccccc3)CC2)cc1 [Example 146, 1-benzyl-4-[2-[N-(4-n-butoxyphenyl)-N-methylamino]ethyl]piperidin-4-ol dihydrochloride]
Arrythmia Ratio (15 minutes after continued injection at 10 mg/kg/hr): 49
Arrythmia Ratio (30 minutes after continued injection at 10 mg/kg/hr): 21
